Results: paper PMC9911399, “Two distinct binding modes provide the RNA-binding protein RbFox with extraordinary sequence specificity”
Substitutions are numbered along the chain they refer to; changes in the protein carry UniProt numbers. This is one part of the list.

T1: RBFOX1 RRM RbFoxmut (Fox-RRM*) (Homo sapiens, UniProt Q9NWB1 109-208, R118D;E147R;N151S;E152T)
T1 sequence: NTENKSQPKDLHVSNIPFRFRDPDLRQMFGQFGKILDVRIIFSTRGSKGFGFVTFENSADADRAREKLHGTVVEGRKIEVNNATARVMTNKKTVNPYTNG

B1: CGUCCGU (DNA:RNA)
RNA: GGGAGACCGGAAUUCAGAUUGUCCCGUCCGUUUAAAUCCCGUCGUAGCCACCA
DNA 1: CAATCTGAATTCCGGTCTCCC
DNA 2: TGGTGGCTACGACGGGATT
B2: GAAUGGA (DNA:RNA)
RNA: B1 RNA with C25G, G26A, U27A, C28U, C29G, U31A
DNA 1: CAATCTGAATTCCGGTCTCCC
DNA 2: TGGTGGCTACGACGGGATT
B3: UGGUUGU (DNA:RNA)
RNA: B1 RNA with C25U, U27G, C28U, C29U
DNA 1: CAATCTGAATTCCGGTCTCCC
DNA 2: TGGTGGCTACGACGGGATT
B4: UCUUAUG (DNA:RNA)
RNA: B1 RNA with C25U, G26C, C28U, C29A, G30U, U31G
DNA 1: CAATCTGAATTCCGGTCTCCC
DNA 2: TGGTGGCTACGACGGGATT
B5: GACUUGA (DNA:RNA)
RNA: B1 RNA with C25G, G26A, U27C, C28U, C29U, U31A
DNA 1: CAATCTGAATTCCGGTCTCCC
DNA 2: TGGTGGCTACGACGGGATT
B6: UGACACA (DNA:RNA)
RNA: B1 RNA with C25U, U27A, C29A, G30C, U31A
DNA 1: CAATCTGAATTCCGGTCTCCC
DNA 2: TGGTGGCTACGACGGGATT
B7: GAAGCCU (DNA:RNA)
RNA: B1 RNA with C25G, G26A, U27A, C28G, G30C
DNA 1: CAATCTGAATTCCGGTCTCCC
DNA 2: TGGTGGCTACGACGGGATT
B8: UCGCCCA (DNA:RNA)
RNA: B1 RNA with C25U, G26C, U27G, G30C, U31A
DNA 1: CAATCTGAATTCCGGTCTCCC
DNA 2: TGGTGGCTACGACGGGATT
B9: GCGCUGC (DNA:RNA)
RNA: B1 RNA with C25G, G26C, U27G, C29U, U31C
DNA 1: CAATCTGAATTCCGGTCTCCC
DNA 2: TGGTGGCTACGACGGGATT
B10: CUUUAGC (DNA:RNA)
RNA: B1 RNA with G26U, C28U, C29A, U31C
DNA 1: CAATCTGAATTCCGGTCTCCC
DNA 2: TGGTGGCTACGACGGGATT
B11: GACGAAU (DNA:RNA)
RNA: B1 RNA with C25G, G26A, U27C, C28G, C29A, G30A
DNA 1: CAATCTGAATTCCGGTCTCCC
DNA 2: TGGTGGCTACGACGGGATT
B12: GCUACGA (DNA:RNA)
RNA: B1 RNA with C25G, G26C, C28A, U31A
DNA 1: CAATCTGAATTCCGGTCTCCC
DNA 2: TGGTGGCTACGACGGGATT
B13: CAAACUC (DNA:RNA)
RNA: B1 RNA with G26A, U27A, C28A, G30U, U31C
DNA 1: CAATCTGAATTCCGGTCTCCC
DNA 2: TGGTGGCTACGACGGGATT
B14: CCCCCCU (DNA:RNA)
RNA: B1 RNA with G26C, U27C, G30C
DNA 1: CAATCTGAATTCCGGTCTCCC
DNA 2: TGGTGGCTACGACGGGATT
B15: CAUACAA (DNA:RNA)
RNA: B1 RNA with G26A, C28A, G30A, U31A
DNA 1: CAATCTGAATTCCGGTCTCCC
DNA 2: TGGTGGCTACGACGGGATT
B16: ACUUAAA (DNA:RNA)
RNA: B1 RNA with C25A, G26C, C28U, C29A, G30A, U31A
DNA 1: CAATCTGAATTCCGGTCTCCC
DNA 2: TGGTGGCTACGACGGGATT
B17: CUGCUUC (DNA:RNA)
RNA: B1 RNA with G26U, U27G, C29U, G30U, U31C
DNA 1: CAATCTGAATTCCGGTCTCCC
DNA 2: TGGTGGCTACGACGGGATT
B18: UUCACUC (DNA:RNA)
RNA: B1 RNA with C25U, G26U, U27C, C28A, G30U, U31C
DNA 1: CAATCTGAATTCCGGTCTCCC
DNA 2: TGGTGGCTACGACGGGATT
B19: CGAGGCG (DNA:RNA)
RNA: B1 RNA with U27A, C28G, C29G, G30C, U31G
DNA 1: CAATCTGAATTCCGGTCTCCC
DNA 2: TGGTGGCTACGACGGGATT
B20: AUCAUUU (DNA:RNA)
RNA: B1 RNA with C25A, G26U, U27C, C28A, C29U, G30U
DNA 1: CAATCTGAATTCCGGTCTCCC
DNA 2: TGGTGGCTACGACGGGATT
B21: AGGCGUG (DNA:RNA)
RNA: B1 RNA with C25A, U27G, C29G, G30U, U31G
DNA 1: CAATCTGAATTCCGGTCTCCC
DNA 2: TGGTGGCTACGACGGGATT
B22: GAAAUCU (DNA:RNA)
RNA: B1 RNA with C25G, G26A, U27A, C28A, C29U, G30C
DNA 1: CAATCTGAATTCCGGTCTCCC
DNA 2: TGGTGGCTACGACGGGATT
B23: GGCACAA (DNA:RNA)
RNA: B1 RNA with C25G, U27C, C28A, G30A, U31A
DNA 1: CAATCTGAATTCCGGTCTCCC
DNA 2: TGGTGGCTACGACGGGATT
B24: CGAAGUU (DNA:RNA)
RNA: B1 RNA with U27A, C28A, C29G, G30U
DNA 1: CAATCTGAATTCCGGTCTCCC
DNA 2: TGGTGGCTACGACGGGATT
B25: AUACUCU (DNA:RNA)
RNA: B1 RNA with C25A, G26U, U27A, C29U, G30C
DNA 1: CAATCTGAATTCCGGTCTCCC
DNA 2: TGGTGGCTACGACGGGATT
B26: CAGCAGU (DNA:RNA)
RNA: B1 RNA with G26A, U27G, C29A
DNA 1: CAATCTGAATTCCGGTCTCCC
DNA 2: TGGTGGCTACGACGGGATT
B27: AGUUUAC (DNA:RNA)
RNA: B1 RNA with C25A, C28U, C29U, G30A, U31C
DNA 1: CAATCTGAATTCCGGTCTCCC
DNA 2: TGGTGGCTACGACGGGATT
B28: AUCACCC (DNA:RNA)
RNA: B1 RNA with C25A, G26U, U27C, C28A, G30C, U31C
DNA 1: CAATCTGAATTCCGGTCTCCC
DNA 2: TGGTGGCTACGACGGGATT
B29: CUGAAGC (DNA:RNA)
RNA: B1 RNA with G26U, U27G, C28A, C29A, U31C
DNA 1: CAATCTGAATTCCGGTCTCCC
DNA 2: TGGTGGCTACGACGGGATT
B30: AGUAGCC (DNA:RNA)
RNA: B1 RNA with C25A, C28A, C29G, G30C, U31C
DNA 1: CAATCTGAATTCCGGTCTCCC
DNA 2: TGGTGGCTACGACGGGATT
B31: CCUCGGU (DNA:RNA)
RNA: B1 RNA with G26C, C29G
DNA 1: CAATCTGAATTCCGGTCTCCC
DNA 2: TGGTGGCTACGACGGGATT

The binders below were run against T1, RBFOX1 RRM RbFoxmut (Fox-RRM*) (assay: EMSA; HiTS-Eq, 1 nM pool, 10 min; buffer printed only for the single-RNA assays: 10 mM Tris pH 7.5, 150 mM NaCl, 3.4 mM EDTA, 0.001% NP-40, 30 C). Conditions: tags: His6 N-terminal (pET28a); label: 5' 32P.
In short: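 A pool of RNA with 7 randomized nucleotides, 5′-radiolabelled and with DNA-annealed flanks, was equilibrated at 1 nM for 10 min in 50 µL with purified RbFox RRM, wild type or mutant, across increasing protein concentrations. Free RNA was separated by 8% native PAGE, excised, reverse-transcribed, barcoded by PCR and sequenced. Relative association constants were obtained from read-count changes of each RNA species versus the control reaction and normalised to the cognate motif.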
For B1, the binding signal was 0.119 KA relative to UGCAUGU.
B2 was tested, and the binding signal was 0.165 KA relative to UGCAUGU.
For B3, the binding signal was 0.396 KA relative to UGCAUGU.
For B4, the binding signal was 0.139 KA relative to UGCAUGU.
For B5, the binding signal was 0.151 KA relative to UGCAUGU.
B6 was tested, and the binding signal was 0.0934 KA relative to UGCAUGU.
With B7 the binding signal was 0.0715 KA relative to UGCAUGU.
For B8, the binding signal was 0.071 KA relative to UGCAUGU.
In the case of B9, the binding signal is reported as 0.086 KA relative to UGCAUGU.
In the case of B10, the binding signal is reported as 0.129 KA relative to UGCAUGU.
For B11, the binding signal was 0.0973 KA relative to UGCAUGU.
With B12 the binding signal was 0.115 KA relative to UGCAUGU.
For B13, the binding signal was 0.0603 KA relative to UGCAUGU.
In the case of B14, the binding signal is reported as 0.0549 KA relative to UGCAUGU.
For B15, the binding signal was 0.0704 KA relative to UGCAUGU.
B16 was tested, and the binding signal was 0.115 KA relative to UGCAUGU.
For B17, the binding signal was 0.128 KA relative to UGCAUGU.
For B18, the binding signal was 0.0685 KA relative to UGCAUGU.
For B19, the binding signal was 0.128 KA relative to UGCAUGU.
For B20, the binding signal was 0.113 KA relative to UGCAUGU.
For B21, the binding signal was 0.224 KA relative to UGCAUGU.
For B22, the binding signal was 0.0496 KA relative to UGCAUGU.
For B23, the binding signal was 0.0678 KA relative to UGCAUGU.
For B24, the binding signal was 0.104 KA relative to UGCAUGU.
B25 was tested, and the binding signal was 0.0727 KA relative to UGCAUGU.
B26 was tested, and the binding signal was 0.0631 KA relative to UGCAUGU.
With B27 the binding signal was 0.0981 KA relative to UGCAUGU.
For B28, the binding signal was 0.0508 KA relative to UGCAUGU.
B29 was tested, and the binding signal was 0.0885 KA relative to UGCAUGU.
In the case of B30, the binding signal is reported as 0.124 KA relative to UGCAUGU.
With B31 the binding signal was 0.111 KA relative to UGCAUGU.
